Experimental data reported in PubChem BioAssay AID624417 (National Center for Advancing Translational Sciences (NCATS), 2012).
In all, about 410,000 compounds went through this assay and about 6,400 (1.6%) were called active. Inconclusive means that the source gave no clear call. Such entries were picked first, then a sample of the others. Calls follow the shape of the dose curve; as a rule, active = well fitted inhibition curve with a large enough effect; inconclusive = small, poorly fitted or top-dose-only effect; inactive = no such curve, though single readings can be large or run the other way. No potency is given beside an inconclusive call; the fits are too rough.
% is scaled to controls: 0 for no effect and ±100 for the full control effect; potency is read from the fitted curve at half-maximal effect; tags tell the direction and shape of the fitted curve.
Also: nearly all actives have a fitted effect of over 55% in size.

The compounds below were run against Glucagon-like peptide 1 receptor (Homo sapiens) (UniProt P43220) (assay: qHTS of GLP-1 Receptor Inverse Agonists (Inhibition Mode)). Conditions: HEK293 GLP-1R CRE-luciferase, luminescence, 24 h, GLP-1R form is constitutively active; activity change, negative = inhibition: at 38.3 µM (top of the series) unless noted.
UniProt P43220, sequence (P43220 whole entry, looked up): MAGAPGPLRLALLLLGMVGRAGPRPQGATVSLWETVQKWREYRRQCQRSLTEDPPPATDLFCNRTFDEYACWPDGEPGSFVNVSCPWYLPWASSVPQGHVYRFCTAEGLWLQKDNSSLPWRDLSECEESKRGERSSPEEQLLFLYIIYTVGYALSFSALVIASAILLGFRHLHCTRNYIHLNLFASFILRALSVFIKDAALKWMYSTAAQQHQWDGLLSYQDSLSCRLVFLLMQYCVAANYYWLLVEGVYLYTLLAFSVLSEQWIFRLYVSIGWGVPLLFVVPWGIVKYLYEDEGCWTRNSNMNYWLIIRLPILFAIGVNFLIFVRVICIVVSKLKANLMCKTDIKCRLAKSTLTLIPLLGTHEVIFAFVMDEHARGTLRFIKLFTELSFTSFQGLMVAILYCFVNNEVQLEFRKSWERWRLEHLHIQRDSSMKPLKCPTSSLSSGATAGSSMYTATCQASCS
How it was run: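 Luminescence readout: a drop in cAMP-driven luciferase signal flags inverse agonism at a constitutively active GLP-1R stably expressed in HEK293. Compound exposure lasted 24 hr at 37 deg C, 5% CO2.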
With `Cc1ccc(/C=N/N2CCN(Cc3ccccc3)CC2)cc1` the Potency was inconclusive [inhibitor, partial curve, poor fit].
`CCN(CC)C(=O)C1=C(C)N(CCC2=CCCCC2)C(=O)C(CC(=O)NCCCCc2ccccc2)C1` (stereo not drawn) was tested, and the Potency was inconclusive [inhibitor, single point].
With `CN(C)c1ccc(/C=C2/SC(=O)N(CCN=C3NS(=O)(=O)c4ccccc43)C2=O)cc1` the “activity change, negative = inhibition” value was inactive: 14.9%.
In the case of `Cc1cccc(C)c1OCc1cc(=O)n2c3c(sc2n1)CCCC3`, the Potency is reported as inconclusive [inhibitor, single point].
`CC(C)CC(=O)Nc1cc(-c2ccccc2F)nn1-c1ccccc1` was tested, and the Potency was inconclusive [inhibitor, partial curve, poor fit].
With `CCN(CC)c1ccc(C(=O)OCC(=O)Nc2sccc2C#N)cc1` the Potency was inconclusive [inhibitor, full curve, poor fit].
For `O=C(COC(=O)c1ccc(O)cc1)Nc1cc(S(=O)(=O)N2CCCCCC2)ccc1Cl`, the Potency was inconclusive [inhibitor, single point].
`CC1=C(C(=O)Nc2ccc(Cl)cc2)C(c2cccs2)n2nnnc2N1` (stereo not drawn) was tested, and the Potency was inconclusive [inhibitor, partial curve, poor fit].
For `CCOC(=O)c1c(NC(=O)CSc2nnc(N)s2)sc(C)c1-c1ccc(C)cc1`, the Potency was inconclusive [inhibitor, single point].
With `COc1ccc(-n2cc(-c3ccccc3)c3c(NC4CCCC4)ncnc32)cc1` the Potency was active: 1.78 µM.
With `O=C(Nc1cccc(C(F)(F)F)c1)C1Cc2c(-c3ccccc3Oc3ccccc3)ccnc2O1` (stereo not drawn) the Potency was inconclusive [inhibitor, partial curve, poor fit].
For `COC(=O)c1ccc(-n2c(C)cc(C(=O)CSc3cccc[n+]3[O-])c2C)cc1`, the Potency was inconclusive [inhibitor, single point].
With `CC1CCC(NC(=O)C(Cc2ccccc2)n2cccc2)CC1` (stereo not drawn) the Potency was inconclusive [inhibitor, partial curve, poor fit].
For `CCCCc1ccc(NC(=S)NCCCN2CCOCC2)cc1`, the Potency was inconclusive [inhibitor, partial curve, poor fit].
In the case of `CC(=O)c1cccc(Nc2cc(C)nc3ccc(C)cc23)c1`, the Potency is reported as inconclusive [inhibitor, partial curve, poor fit].
`Cc1ccc(C(=O)COC(=O)C(Cc2c[nH]c3ccccc23)NC(=O)c2ccc(C(C)(C)C)cc2)cc1` (stereo not drawn) was tested, and the Potency was inconclusive [inhibitor, single point].
In the case of `CCN(c1ccccc1)S(=O)(=O)c1ccc(-c2cc(C)no2)s1`, the Potency is reported as inconclusive [inhibitor, partial curve, poor fit].
In the case of `CCCCC(CC)C(=O)Nc1ccc(C#N)cc1` (stereo not drawn), the Potency is reported as inconclusive [inhibitor, single point].
In the case of `O=C(O)C1C2CCC(C2)C1C(=O)Nc1ccc(Cl)c(Cl)c1` (stereo not drawn), the Potency is reported as inconclusive [inhibitor, partial curve].
In the case of `COc1ccc(OC)c(CNC(=O)c2cnc3c(C)cccn3c2=O)c1`, the “activity change, negative = inhibition” value is reported as inactive: 1.81%.
With `O=C(/C=C/c1ccc([N+](=O)[O-])cc1)Nc1ncc([N+](=O)[O-])s1` the Potency was active: 12.6 µM.
In the case of `CCN(CC)S(=O)(=O)c1cccc(-c2nnc(SCc3nc4ccccc4s3)o2)c1`, the Potency is reported as inconclusive [inhibitor, single point].
For `Cc1cc(C)cc(-n2c3ccc(NC(=S)NC4CCCCC4)cc3c(=O)n2C)c1`, the Potency was inconclusive [inhibitor, single point].
In the case of `CCCCN1CC(COCc2ccccc2)Oc2cccc(Oc3ccc(OC)cc3)c2S1(=O)=O` (stereo not drawn), the Potency is reported as inconclusive [inhibitor, full curve, poor fit].
With `Cc1ccccc1OCCSc1nnc(C)n1-c1ccccc1` the Potency was inconclusive [inhibitor, single point].
In the case of `CC(NC(=O)CCNC(=O)c1ccccc1Cl)c1ccc(-n2ccnc2)cc1` (stereo not drawn), the “activity change, negative = inhibition” value is reported as inactive: 6.44%.
In the case of `CC1Cc2ccccc2N1C(=O)CCS(=O)(=O)c1ccc2c(c1)NC(=O)CS2` (stereo not drawn), the Potency is reported as inconclusive [inhibitor, partial curve].
`N#Cc1cc(N)ccc1Sc1ccc(Cl)cc1` was tested, and the Potency was inconclusive [inhibitor, single point].
`CN1CCN(C(=S)SCC(=O)N2CCCc3ccccc32)CC1` was tested, and the Potency was inconclusive [inhibitor, single point].
`c1ccc(CCCNCCCn2cnc3c(OCc4ccccc4)ncnc32)cc1` was tested, and the Potency was inconclusive [inhibitor, partial curve].
`COC(=O)c1cccc(C23CC4(C2)[C@H](CN(C)[C@@H]4c2ccccc2)C3c2ccccc2)c1` (stereo partly drawn) was tested, and the Potency was active: 8.91 µM.
With `Nc1cc(S(=O)(=O)c2ccc(N3CCCCC3)c(N)c2)ccc1N1CCCCC1` the Potency was inconclusive [inhibitor, partial curve, poor fit].
With `O=[N+]([O-])c1ccc(N/N=C/c2ccccc2)cc1` the Potency was inconclusive [inhibitor, single point].
`CCCn1c2c(c(O)c(C(=O)NC)c1=O)CCCC2` was tested, and the Potency was inconclusive [inhibitor, single point].
With `Nn1c(Cc2cccc3ccccc23)nnc1SCc1c(F)cccc1Cl` the Potency was inconclusive [inhibitor, single point].
With `CCC(c1nnnn1-c1ccc2c(c1)OCCO2)N1CCN(C(=O)C2CCCO2)CC1` (stereo not drawn) the “activity change, negative = inhibition” value was inactive: 8.39%.
In the case of `COc1ccc(-c2ccc(OC)c(OC)c2OC)c(OC)c1OC`, the Potency is reported as inconclusive [inhibitor, partial curve].
`COc1cc(C(=O)O/N=C(\N)Cc2ccc([N+](=O)[O-])cc2)cc(OC)c1OC` was tested, and the Potency was inconclusive [inhibitor, single point].
In the case of `COc1ccccc1N(C)S(=O)(=O)c1ccc(C(=O)NCC2CCCCC2)cc1`, the Potency is reported as inconclusive [inhibitor, single point].
For `CC1(C(=O)NCc2ccco2)Cc2c(-c3cccc(C(N)=O)c3)ccnc2O1` (stereo not drawn), the Potency was inconclusive [inhibitor, partial curve, poor fit].
In the case of `Cc1ccc(C(=O)c2no[n+]([O-])c2C(=O)c2ccc(C)cc2)cc1`, the Potency is reported as inconclusive [inhibitor, single point].
With `Oc1ccc(Br)cc1CNc1cccc2cccnc12` the Potency was inconclusive [inhibitor, single point].
`COc1cc(CNCc2ccccn2)ccc1OCc1ccc(Cl)cc1Cl` was tested, and the Potency was inconclusive [inhibitor, partial curve, poor fit].
For `Cc1cc(C)n2c(Nc3ccc(C(C)C)cc3)c(-c3ccsc3)nc2n1`, the Potency was inconclusive [inhibitor, single point].
In the case of `Cc1oc2ncn(CC(C)C)c(=O)c2c1C(=O)NCCc1ccccc1`, the Potency is reported as inconclusive [inhibitor, single point].
In the case of `C[C@@H]1Cc2[nH][nH]c(=O)c2[C@H](C)O1`, the “activity change, negative = inhibition” value is reported as inactive: 2.43%.
`CN1C(=O)C(C)(C)c2cc(S(=O)(=O)N3CCN(c4cccc(Cl)c4)CC3)ccc21` was tested, and the Potency was inconclusive [inhibitor, single point].
`CCC(=O)OCCNc1nc(-c2ccccc2)nc2ccccc12` was tested, and the Potency was inconclusive [inhibitor, single point].
For `CCCN1CCc2c(sc(NC(=O)c3ccc(S(=O)(=O)N(C)c4ccccc4)cc3)c2C(=O)NC)C1`, the Potency was inconclusive [inhibitor, full curve, poor fit].
`CN(Cc1cccc(Cl)c1)C(=O)C1CCC(=O)N(C2CC2)C1` (stereo not drawn) was tested, and the “activity change, negative = inhibition” value was inactive: 18%.
With `COc1ccc(N2CCN(C(=O)CCc3ccc(S(=O)(=O)NC(C)(C)C)cc3)CC2)cc1` the Potency was inconclusive [inhibitor, single point].
`CCN1CCN(c2nc(-c3ccccc3)c3ccccc3n2)CC1` was tested, and the Potency was inconclusive [inhibitor, partial curve, poor fit].
For `O=c1c(=O)n(Cc2ccc(Cl)cc2)ccn1Cc1ccc(F)cc1`, the “activity change, negative = inhibition” value was inactive: 10.1%.
`CC1(Oc2cccc(F)c2)CCN(Cc2csc3ccccc23)C1` (stereo not drawn) was tested, and the Potency was inconclusive [inhibitor, single point].
With `Oc1ccc(/C(Cc2ccccn2)=N\Nc2ccccc2)c(O)c1` the Potency was inconclusive [inhibitor, partial curve, poor fit].
With `CC(C)(C)C(=O)/C(=C/c1ccncc1)n1cncn1` the Potency was inconclusive [inhibitor, partial curve, poor fit].
`O=C(CCCN1C(=O)C(c2ccccc2)Oc2cccnc21)NCc1ccccc1F` (stereo not drawn) was tested, and the Potency was inconclusive [inhibitor, single point].
`CCOC(=O)CSCC(=O)N1N=C(c2cccs2)CC1c1ccc(F)cc1` (stereo not drawn) was tested, and the Potency was inconclusive [inhibitor, partial curve, poor fit].
`Clc1ccc(CSc2snnc2-c2ccccc2)cc1` was tested, and the Potency was inconclusive [inhibitor, single point].
With `Cc1ccc2c(c1)-c1c(cnn1CC(=O)N1CCN(c3ccccc3F)CC1)CO2` the “activity change, negative = inhibition” value was inactive: -5.17%.
In the case of `COc1ccc(CCn2cc(C#N)c(=O)[nH]c2=O)cc1OC`, the Potency is reported as inconclusive [inhibitor, single point].
In the case of `O=C(OCC12CC3CC(CC(C3)C1)C2)c1ccc(NCc2cc(O)ccc2O)cc1`, the Potency is reported as inconclusive [inhibitor, single point].
For `Cc1cccc(NC(=O)c2onc3c2CCCC3)n1`, the Potency was inconclusive [inhibitor, partial curve, poor fit].
